Measured values taken from paper PMC4336329 (PLoS ONE, 2015).
Out of some 310,000 compounds screened, about 14,000 (4.5%) showed an effect of 50% or more. The effect is printed as a negative number. The list shows a part of the results.

biological target: human ether-à-go-go-related gene (hERG) potassium channel (human, UniProt Q12809); assay: primary screen, population patch clamp on CHO cells stably expressing hERG
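Note: peak tail current of the secondary pulse compared with the same well before compound.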

Sequence of human ether-à-go-go-related gene (hERG) potassium channel (Q12809 whole entry, looked up): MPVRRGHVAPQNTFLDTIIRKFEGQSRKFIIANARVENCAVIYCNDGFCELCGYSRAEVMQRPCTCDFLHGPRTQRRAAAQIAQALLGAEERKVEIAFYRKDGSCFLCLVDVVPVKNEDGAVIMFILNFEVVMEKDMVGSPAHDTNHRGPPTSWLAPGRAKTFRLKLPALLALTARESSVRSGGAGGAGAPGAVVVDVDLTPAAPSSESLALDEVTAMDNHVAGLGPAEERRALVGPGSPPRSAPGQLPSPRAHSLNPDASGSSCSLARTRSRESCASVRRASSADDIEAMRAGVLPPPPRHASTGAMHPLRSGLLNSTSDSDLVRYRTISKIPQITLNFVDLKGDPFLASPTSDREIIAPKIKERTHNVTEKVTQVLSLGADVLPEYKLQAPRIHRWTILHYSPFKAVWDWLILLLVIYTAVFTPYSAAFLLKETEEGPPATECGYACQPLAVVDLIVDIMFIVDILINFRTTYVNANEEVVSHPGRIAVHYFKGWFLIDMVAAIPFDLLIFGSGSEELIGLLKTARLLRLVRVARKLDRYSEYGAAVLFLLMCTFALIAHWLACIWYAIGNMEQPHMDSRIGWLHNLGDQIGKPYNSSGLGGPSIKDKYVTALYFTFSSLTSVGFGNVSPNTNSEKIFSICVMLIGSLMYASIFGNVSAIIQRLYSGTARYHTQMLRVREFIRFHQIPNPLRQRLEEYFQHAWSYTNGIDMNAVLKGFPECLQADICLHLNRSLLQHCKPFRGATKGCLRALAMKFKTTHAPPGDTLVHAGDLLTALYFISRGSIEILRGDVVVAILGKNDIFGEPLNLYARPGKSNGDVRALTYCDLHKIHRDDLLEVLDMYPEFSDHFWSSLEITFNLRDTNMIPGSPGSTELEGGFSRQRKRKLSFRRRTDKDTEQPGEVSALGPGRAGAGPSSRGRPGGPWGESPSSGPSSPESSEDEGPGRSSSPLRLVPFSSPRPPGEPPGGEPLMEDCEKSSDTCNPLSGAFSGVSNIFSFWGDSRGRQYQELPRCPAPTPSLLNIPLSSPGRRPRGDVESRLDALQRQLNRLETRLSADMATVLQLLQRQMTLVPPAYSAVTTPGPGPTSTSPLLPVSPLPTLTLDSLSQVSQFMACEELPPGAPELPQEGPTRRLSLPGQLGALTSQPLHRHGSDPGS

Row | SMILES | hERG current change (%, negative = inhibition) at 10uM [%]
1 | COC(=O)c1ccccc1-c1ccc(/C=C2\C(=O)N(c3ccccc3)N=C2c2ccccc2)o1 | 5.89
2 | CC(=O)c1ccc(NC(=O)C2CCN(S(=O)(=O)c3cccs3)CC2)cc1 | -19.4
3 | C=CCn1cccc(C(=O)Nc2ccc(C)c(Cl)c2)c1=O | 10
4 | COc1ccc(C(C(=O)OC(C)CN(C)C)c2ccccc2)cc1.Cl (stereo not drawn) | -34.1
5 | CCOC(=O)C1CC2CC(C1)CN(C(=O)C1CCCCC1)C2 (stereo not drawn) | 31.4
6 | CCOc1cc(CN2CCN(c3cccc(C(F)(F)F)c3)CC2)ccc1O | -73
7 | Cc1[nH]c2ccccc2c1SCC(=O)N1CCCCC1 | 19.3
8 | Cc1cccc(C)c1NC1=C(Cl)C(=O)OC1OC(=O)c1ccccc1 (stereo not drawn) | 21.1
9 | CCc1ccc(C2NC(=S)NC3=C2C(=O)N(c2ccccc2OC)C(c2ccc(CC)cc2)N3)cc1 (stereo not drawn) | -8.82
10 | CCOc1ccc(NC(=O)COc2ccc(C(=O)NCc3cccc(OC)c3)cc2OC)cc1 | -5.85
11 | COc1ccccc1CNC(=O)c1cnccn1 | 0.0654
12 | Cc1nc([N+](=O)[O-])cn1CCC#N | -1.22
13 | O=C(CNC(=O)c1ccc(Br)o1)NNC(=O)c1cccc(Cl)c1 | -7.08
14 | c1ccc(-n2nnnc2Oc2cccc3cccnc23)cc1 | -0.173
15 | O=C(c1ccco1)N1CCN(c2nc(-c3ccc(F)cc3)cs2)CC1 | -34.9
16 | CC(c1n[nH]c(=S)n1Cc1ccccc1)N(C)C (stereo not drawn) | 15.6
17 | O=C1CCc2cc(NS(=O)(=O)c3ccc(Br)cc3)cc3c2N1CC3 | -13.5
18 | COc1ccc(CCNS(=O)(=O)c2ccc3c(c2)CC(C)N3C(C)=O)cc1OC (stereo not drawn) | -7.6
19 | Cc1nc(Cl)c(S(N)(=O)=O)c(C)c1Cl | 2.19

Row | SMILES | hERG current change (%, negative = inhibition) at 10uM [%]
20 | Cc1c(NC(=O)COC(=O)c2c3c(nc4ccccc24)CCCC3)c(=O)n(-c2ccccc2)n1C | -10.1
21 | O=C(Cc1ccc2c(c1)OCCO2)c1c(O)cc(O)cc1O | -0.205
22 | NC(=S)N/N=C1\CC(c2ccc3c(c2)OCCO3)Oc2ccc(F)cc21 (stereo not drawn) | 12.9
23 | COc1cc(/C=C/C(=O)OCC(=O)NC(=O)NC(C)C)cc(S(=O)(=O)N2CCc3ccccc32)c1OC | 9
24 | COc1ccccc1NC(=O)c1ccc(NC(=O)COC(=O)CC(NC(=O)c2ccccc2Cl)c2ccccc2)cc1 (stereo not drawn) | 6.73
25 | O=S(=O)(Nc1ccc(Br)cc1)N1CCOCC1 | 4.08
26 | CC(=O)N1CCN(CC(C)(C)NS(=O)(=O)c2ccc(C)cc2)CC1 | 7.76
27 | N#Cc1c(N)nc2c(c1N)CC(C(F)(F)F)O2 (stereo not drawn) | 45.7
28 | Cc1cccc(NC(=S)N(Cc2ccc(Br)cc2)Cc2ccc(C(=O)O)cc2)c1 | 13.7
29 | Cc1cc(C)nc(-n2ncc(C#N)c2N)n1 | 10.7
30 | CC(=O)c1cccc(N2C(=O)CC(N3CCN(S(=O)(=O)c4ccc(Cl)cc4)CC3)C2=O)c1 (stereo not drawn) | 3.74
31 | COc1ccc2[nH]c(=O)c(CN(Cc3cccnc3)Cc3nnnn3CC3CCCO3)cc2c1 (stereo not drawn) | -1.97
32 | COc1ccc(OCCNC(=O)CCCO)cc1 | 21
33 | COc1ccc(C2CCCN2C(=O)Nc2ccccc2)cc1OC (stereo not drawn) | -16.1
34 | CC(=O)c1ccc(C(=O)N2CCC(CO)(Cc3cccc(C(F)(F)F)c3)CC2)cc1 | -74.6
35 | Cc1ccnc(NC(=O)c2ccc3c(c2)C(=O)N(CC(C)C)C3=O)c1 | -10.5
36 | O=C(c1cc(=O)c2cc(Cl)ccc2o1)N1CCN(Cc2ccccc2)CC1 | -70.8
37 | COc1ccc2oc(=N)c(C(=O)Nc3ccc(Br)cc3)cc2c1 | 10.8
38 | Cc1noc(/C=C/N(C)C)c1S(=O)(=O)N1CCC(C(=O)O)CC1 | 21.6

Row | SMILES | hERG current change (%, negative = inhibition) at 10uM [%]
39 | COc1cccc(-c2nn(-c3ccccc3)cc2CN(C)C(C)c2ccncn2)c1 (stereo not drawn) | -15.6
40 | Cn1nnnc1SCc1nnc(-c2ccc(F)cc2)o1 | -6.36
41 | Cc1cc(OCC(O)CN)ccc1Cl (stereo not drawn) | 8.74
42 | O=C(CNC(=S)N(Cc1ccccc1)Cc1cccnc1)NC1CCCCC1 | -26.4
43 | Cc1nnc(SCc2ccccc2)[nH]c1=O | 19.8
44 | Cn1nccc1NC(=O)NC(=O)c1c(Cl)cccc1Cl | 11.6
45 | COc1ccc(C(=O)Nc2ccc(N3CCC(C)CC3)cc2)cc1Br | 23.5
46 | CCN1CCN(Cc2c(C)[nH]c3ccc(OC)cc3c2=O)CC1 | -6.99
47 | COc1ccccc1N1C(=O)CC(N2CCN(c3ccc(Cl)cc3)CC2)C1=O (stereo not drawn) | 1.61
48 | C=CCNC(=O)N1CCCC(C(=O)c2cccc(OC(C)C)c2)C1 (stereo not drawn) | -0.855
49 | O=C(c1ccccc1)c1ccc(-n2ccnc2)c([N+](=O)[O-])c1 | -25.8
50 | COc1ccccc1NC(=O)c1ccc(-c2ccc(Br)cc2)o1 | -4.13
51 | CCOc1ccc(NC(=O)[C@@H](NC(=O)c2ccco2)C(C)C)cc1 | -3.67
52 | CCCCc1nc(NCCO)c(C#N)c2c1CCCC2 | -15.7
53 | c1ccc(-c2ncc(CN3CCN(c4ccccn4)CC3)[nH]2)cc1 | -14.1
54 | COc1ccc(CCNC(=O)CCn2c(=O)c3ccccc3n(CC(=O)NCC3CCCO3)c2=O)cc1OC (stereo not drawn) | 8.86
55 | O=C1CCCN1CCC(=O)N1CCCC(Nc2ccc(F)c(F)c2)C1 (stereo not drawn) | 1.24
56 | CCOC(=O)c1cc(-c2ccccc2)sc1NC(=O)c1ccc(OC)c(OC)c1 | -3.71
57 | Cc1cccc(C2(c3cccc(C)c3)OC(=O)c3ccccc32)c1 | 7.88
